# Experimental data published in the supplement of paper PMC8728848.
# The list shows a part of the results.
# B1: BT3172pd (Bacteroides thetaiotaomicron) (protein)
# chain: MLPLRAEHYYYKQISLKEGLPSNVRCILRDEQGFIWIGTKAGLGKFDGHQLKRYKHQANDPHSLLHNLIYQIAEDKQHNIWILTEKGIARYQQQSNNFTFPTDEEGNYITAYSFCLVPDGILFGGKDRIYKYSYKDSSLRLLQYFNANSFKITALSVWDSKTLLCCSRWTGLYLVDLQTGEHRRPPFDCGPEITSMITDSKNRIWIAPYSGGLRCYSRDGKLSASYTTHNSSLSNDIVLSLAEREEQLWIGTDGGGINILHPETGEISQLEYIPGRENYSLPANSILCLHNDYNNNVWAGSTCNGLISIREVSMKTYTDVVPGNDRGLSNGTVRSLYRQSPDSIWIGTDGGGINLFSPHTEKFTHYSSTWGDKVAFISGFTPGKLLISLFSKGVFVFNPATGEKQPFTIIDKETTTRLCNRGKSVNLYQNTPNTVLFLGDHIYQYHLKEKKFSTITEEEGKDIVGTLVPFDHQENLTYINDIKHIYELDDQTSRLKTVFECYTDTVISSVSHDEQGHFWIGSNFGLIHYDPVLKSRTLVPTNLFTEINMVLCDQKGKVWIGVDNMLFAYFIKEQKFVLFGESNGAIQNEYLPNARLVNEQGDAYIGGVKGMLRIDGQLLLNTSEMPELQLLDITINGESANHEWYNHPAKISVPWNSNISIRIMSREEDIFRQKIYRYQIEGLNNEYTESYNPELVIRSLLPGSYRIMASCTAKDGSWIPDQQVLELTVLPPWYRTHHHHHH
# What was measured:
# Assay in all cases: glycan array binding signal (z-score within array); higher = stronger binding
# Settings in all cases: glycan notation: IUPAC condensed, linker removed
# [1] = molecular target: GalNAc(b1-4)GlcNAc(b1-2)Man
# Outline: (§1)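 Negative Z-scores can be read as non-binding. The Z-score is calculated within each array and then averaged across arrays of one protein sequence at different concentrations or buffers and across linkers. Arrays, 3228 in all, were curated from the Consortium for Functional Glycomics database and kept only where the protein sequence was available.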
# [2] = molecular target: GalNAc(b1-4)GlcNAc(b1-2)Man(a1-3)[GalNAc(b1-4)GlcNAc(b1-2)Man(a1-6)]Man(b1-4)GlcNAc(b1-4)GlcNAc
# Outline: as §1
# [3] = molecular target: GalNAc(b1-4)GlcNAc(b1-3)GalNAc(b1-4)GlcNAc
# Outline: as §1
# [4] = molecular target: GalNAc(b1-4)GlcNAc6S
# Outline: as §1
# [5] = molecular target: GalNAc(b1-6)GalNAc
# Outline: as §1
# [6] = molecular target: GalNAc3S(b1-4)GlcNAc
# Outline: as §1
# [7] = molecular target: GalNAc3S(b1-4)GlcNAc3S
# Outline: as §1
# [8] = molecular target: GalNAc3S(b1-4)[Fuc(a1-3)]GlcNAc
# Outline: as §1
# [9] = molecular target: GalNAc4S6S(b1-4)GlcNAc
# Outline: as §1
# [10] = molecular target: GalNAc6S(b1-4)GlcNAc
# Outline: as §1
# [11] = molecular target: Glc(a1-4)Glc
# Outline: as §1
# [12] = molecular target: Glc(a1-4)Glc(a1-4)Glc(a1-4)Glc
# Outline: as §1
# [13] = molecular target: Glc(a1-6)Glc(a1-6)Glc
# Outline: as §1
# [14] = molecular target: Glc(a1-6)Glc(a1-6)Glc(a1-6)Glc
# Outline: as §1
# [15] = molecular target: Glc(b1-4)Glc
# Outline: as §1
# [16] = molecular target: Glc(b1-6)Glc
# Outline: as §1
# [17] = molecular target: GlcA(b1-3)Gal
# Outline: as §1
# [18] = molecular target: GlcA(b1-3)GlcNAc
# Outline: as §1
# [19] = molecular target: GlcA(b1-6)Gal
# Outline: as §1
# [20] = molecular target: GlcA3S(b1-3)Gal(b1-4)GlcNAc(b1-2)Man
# Outline: as §1
# [21] = molecular target: GlcA3S(b1-3)Gal(b1-4)GlcNAc(b1-3)Gal(b1-4)Glc
# Outline: as §1
# [22] = molecular target: GlcNAc(a1-3)Gal(b1-4)GlcNAc
# Outline: as §1
# [23] = molecular target: GlcNAc(a1-4)Gal(b1-3)GlcNAc
# Outline: as §1
# [24] = molecular target: GlcNAc(a1-4)Gal(b1-4)GalNAc
# Outline: as §1
# [25] = molecular target: GlcNAc(a1-4)Gal(b1-4)GlcNAc
# Outline: as §1
# [26] = molecular target: GlcNAc(a1-4)Gal(b1-4)GlcNAc(b1-3)Gal(b1-4)Glc
# Outline: as §1
# [27] = molecular target: GlcNAc(a1-4)Gal(b1-4)GlcNAc(b1-3)Gal(b1-4)GlcNAc
# Outline: as §1
# [28] = molecular target: GlcNAc(a1-4)Gal(b1-4)GlcNAc(b1-3)Gal(b1-4)GlcNAc(b1-3)Gal(b1-4)GlcNAc
# Outline: as §1
# [29] = molecular target: GlcNAc(a1-4)Gal(b1-4)GlcNAc(b1-3)Gal(b1-4)[Fuc(a1-3)]GlcNAc(b1-3)Gal(b1-4)[Fuc(a1-3)]GlcNAc
# Outline: as §1
# [30] = molecular target: GlcNAc(a1-6)Gal(b1-4)GlcNAc
# Outline: as §1
binder,measurement,setting,value
B1,glycan array binding signal (z-score),[1],1.37
same,glycan array binding signal (z-score),[2],-0.134
same,glycan array binding signal (z-score),[3],-2.79
same,glycan array binding signal (z-score),[4],0.588
same,glycan array binding signal (z-score),[5],-0.483
same,glycan array binding signal (z-score),[6],-0.04
same,glycan array binding signal (z-score),[7],-0.647
same,glycan array binding signal (z-score),[8],6.05
same,glycan array binding signal (z-score),[9],-0.772
same,glycan array binding signal (z-score),[10],-0.469
same,glycan array binding signal (z-score),[11],0.326
same,glycan array binding signal (z-score),[12],1.57
same,glycan array binding signal (z-score),[13],-0.632
same,glycan array binding signal (z-score),[14],0.665
same,glycan array binding signal (z-score),[15],2.02
same,glycan array binding signal (z-score),[16],-0.376
same,glycan array binding signal (z-score),[17],0.173
same,glycan array binding signal (z-score),[18],0.044
same,glycan array binding signal (z-score),[19],1.51
same,glycan array binding signal (z-score),[20],-0.286
same,glycan array binding signal (z-score),[21],0.217
same,glycan array binding signal (z-score),[22],0.074
same,glycan array binding signal (z-score),[23],-0.331
same,glycan array binding signal (z-score),[24],-0.076
same,glycan array binding signal (z-score),[25],-0.811
same,glycan array binding signal (z-score),[26],-0.699
same,glycan array binding signal (z-score),[27],-0.207
same,glycan array binding signal (z-score),[28],-0.56
same,glycan array binding signal (z-score),[29],-0.339
same,glycan array binding signal (z-score),[30],-0.101
